Results on 30 compounds are retold here after PubChem BioAssay AID1745853 (National Center for Advancing Translational Sciences (NCATS), 2022).

The list shows a part of the results. The main result of the screen is listed elsewhere. These columns were measured beside it and carry no call.

Holding throughout (assay): Primary Screen for Target Class Profiling of Small Molecule Inhibitors of Methyltransferases
Experiment [1] concerns the target Glycine N-methyltransferase (Homo sapiens) (UniProt Q14749). The note with it: purified enzyme, MTase-Glo SAH luminescence; measured here: GNMT inhibition; at 40 µM; stronger effect = lower value. The method, boiled down: (§1)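 Each enzyme was reacted with SAM and its substrate, with compounds tested once at 40 uM; SAH formed was read by MTase-Glo luminescence.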
Experiment [2] addresses Guanidinoacetate N-methyltransferase (Homo sapiens) (UniProt Q14353). Conditions: purified enzyme, MTase-Glo SAH luminescence; measured here: GAMT inhibition; at 40 µM; stronger effect = lower value. The method, boiled down:
as §1

For experiment [3], the target named is Histamine N-methyltransferase (Homo sapiens) (UniProt P50135). The note with it: purified enzyme, MTase-Glo SAH luminescence; measured here: HNMT inhibition; at 40 µM; stronger effect = lower value. The gist of the method:
as §1

Experiment [4] addresses Nicotinamide N-methyltransferase (Homo sapiens) (UniProt P40261). Conditions: purified enzyme, MTase-Glo SAH luminescence; measured here: NNMT inhibition; at 40 µM; stronger effect = lower value. The gist of the method: as §1
For experiment [5], the target named is Phenylethanolamine N-methyltransferase (Homo sapiens) (UniProt P11086). Conditions: purified enzyme, MTase-Glo SAH luminescence; measured here: PNMT inhibition; at 40 µM; stronger effect = lower value. The gist of the method: as §1
% is set by controls: 0 for no effect and ±100 for the full control effect.

Regarding `CC1(C(=O)NC2CCCCCCC2)Cc2ccccc2C(=O)N1CCN1CCCCCC1` (stereo not given), the activity change, negative = inhibition was -3.59% in experiment [1]; 6.21% in experiment [2]; -8.96% in experiment [3]; 1.36% in experiment [4]; -0.301% in experiment [5].
The corresponding values for `CCN(c1ccccc1)S(=O)(=O)c1ccc2[nH]c3c(c2c1)CCCC3` are 0.001%, 0.779%, 4.84%, -1.97% and 0.779%.
Taken in the same sequence, the figures for `O=C(c1ccccc1)N1CC2(CCCN2CC2CC2)Cc2ccccc21` (stereo not given) were -3.66%, 1.98%, -9.46%, -6.83% and -1.09%.
The corresponding values for `COc1ccc(-c2cc3n(n2)CC(C)(C(=O)NCc2ccccc2)N(Cc2ccc(F)cc2)C3=O)cc1` (stereo not given) are 5.56%, 0%, 8.02%, 7.26% and 3.1%.
`O=S(=O)(Nc1cc(Cl)c(Oc2cnc3ccccc3c2)c(Cl)c1)c1ccc(Cl)cc1Cl`: the activity change, negative = inhibition is -22.9% in experiment [1]; -44.5% in experiment [2]; -2.61% in experiment [3]; -89.7% in experiment [4]; -37.7% in experiment [5].
Taken in the same sequence, the figures for `CC(=O)c1ccc(Nc2nc3c(S(=O)(=O)c4ccc(C)c(C)c4)nnn3c3ccccc23)cc1` were -3.98%, 3.67%, -3.48%, -3.83% and -4.85%.
Taken in the same sequence, the figures for `CN(C)CC(=O)Nc1ccc2[nH]c(=O)c3ccccc3c2c1` were -7.36%, -1.6%, -28.5%, -22.4% and -7.67%.
With `Cc1c(NC(=O)OCC2COCCN2)cn2ncnc(Nc3ccc4c(cnn4Cc4cccc(F)c4)c3)c12` (stereo not given), the activity change, negative = inhibition in experiment [1] is -2.17%; in experiment [3], 5.54%.
As to `O=C(C1COc2cc(S(=O)(=O)NCCN3CCOCC3)ccc2O1)N1CCOCC1` (stereo not given), the activity change, negative = inhibition in experiment [1] worked out at 1.04%; in experiment [2], 0%; in experiment [3], 9.7%; in experiment [4], 10.9%; in experiment [5], 8.37%.
Taken in the same sequence, the figures for `Cc1ccc(CNC(=O)CCn2ccc3cc(S(=O)(=O)N4CCC(C)CC4)ccc32)cc1` were 6.15%, 1.8%, 2.83%, -0.859% and -0.173%.
Consider `CC1(C)[C@H]2C[C@H](C/C=C\CCCC(=O)O)[C@@H](NC(=O)c3csc4ccc(O)cc34)[C@@H]1C2`, for which the activity change, negative = inhibition in experiment [1] is -0.893%; in experiment [2], 0.549%; in experiment [3], 11.3%; in experiment [4] it was -39.8%; in experiment [5] it was -1.08%.
On to `CN1C(=O)c2cc(NC(=O)CCC(=O)N3CCOCC3)ccc2N2CCN=C12`, for which the activity change, negative = inhibition in experiment [1] was -1.25%; in experiment [2], -0.082%; in experiment [3], -1.75%; in experiment [4], -2.21%; in experiment [5] it was -4.4%.
Take `CCNC(=O)N[C@H]1CC[C@]2(C)CCC([C@H](C)C(=O)N(C)CCC#N)[C@H](O)[C@H]2[C@@H]1C` (stereo not given in full): the activity change, negative = inhibition in experiment [1] was -1.48%; in experiment [2], -0.678%; in experiment [3], -0.232%; in experiment [4], -4.2%; in experiment [5], -1.92%.
In the case of `COc1ccccc1CNC(=O)C1(C)Cn2nc(-c3ccccc3)cc2C(=O)N1Cc1ccccc1F` (stereo not given), the activity change, negative = inhibition in experiment [1] was 3.17%; in experiment [2] it was 4.71%; in experiment [3], 6.38%; in experiment [4] it was -2.47%; in experiment [5], -0.264%.
Taken in the same sequence, the figures for `COc1ccc(CNC(=O)C(C)n2ccc3cc(S(=O)(=O)N4CCCCC4)ccc32)c(OC)c1` (stereo not given) were -0.045%, 0%, 4.19%, -5.1% and 1.45%.
For `CCC(C)NC(=O)c1ccc2c(=O)n(C)c3nnc(SCC(=O)Nc4cc(F)ccc4F)n3c2c1` (stereo not given), the activity change, negative = inhibition was -0.451% in experiment [1]; 1.88% in experiment [2]; -1.84% in experiment [3]; -5.11% in experiment [4]; -3.51% in experiment [5].
The corresponding values for `Cc1ccc([C@@H]2CC=C(C(=O)O)[C@H](c3ccc(C(C)(C)C)cc3)N2S(=O)(=O)c2ccc(C)cc2)cc1` are -18.9%, -5.6%, 9.16%, -41.3% and -8.76%.
As to `CC1=NS(=O)(=O)N(C)C=C1C(=O)OCc1nc(-c2cccc(C)c2)no1`, the activity change, negative = inhibition in experiment [1] was -5.9%; in experiment [2] it was -2.59%; in experiment [3], -4.02%; in experiment [4] it was -9.19%; in experiment [5] it was -4.08%.
Consider `CN(CC(=O)Nc1ccc(Br)cc1F)S(=O)(=O)c1ccc2[nH]c3c(c2c1)CCCC3`, for which the activity change, negative = inhibition in experiment [1] was -0.906%; in experiment [2] it was -2.17%; in experiment [3], -0.257%; in experiment [4], -3.86%; in experiment [5] it was -0.287%.
Taken in the same sequence, the figures for `Cc1ccccc1Cn1nc2n(Cc3ccccc3)c(=O)c3ccc(C(=O)NC4CCCC4)cc3n2c1=O` were 4.25%, 3.51%, 0.642%, 12.2% and 1.46%.
The corresponding values for `CCCN1C(=O)c2c(C(=O)NCc3ccc(OC)cc3)ncn2CC1(C)C(=O)NCc1ccc(C)cc1` (stereo not given) are 1.76%, 0.65%, 2.87%, 6.12% and 6.57%.
Turning to `N#C/C(=C\c1ccc(-c2cc(Cl)ccc2Cl)o1)C(=O)Nc1cccc2ncccc12`, the activity change, negative = inhibition in experiment [1] is -24%; in experiment [2], 3.12%; in experiment [3], -4.05%; in experiment [4] it was -7.8%; in experiment [5] it was 2.44%.
Consider `COC(=O)C1=COC(O[C@@H]2O[C@H](CO[C@@H]3O[C@H](COC(=O)/C=C\c4ccc(O)cc4)[C@@H](O)[C@H](O)[C@H]3O)[C@@H](O)[C@H](O)[C@H]2O)C2C(CO)=CCC12` (stereo not given in full), for which the activity change, negative = inhibition in experiment [1] was -1.35%; in experiment [2], -4.14%; in experiment [3] it was 4.56%; in experiment [4], -11.4%; in experiment [5], -7.68%.
The corresponding values for `CC1(C(=O)NCc2cccnc2)CCCc2cnc(Nc3ccccc3F)nc21` (stereo not given) are -14.1%, -8.72%, -6.45%, -20.7% and -7.02%.
The corresponding values for `COC(=O)c1sccc1S(=O)(=O)N1CCN2C(=O)CN(C)C(=O)C2C1` (stereo not given) are -0.352%, -0.049%, 3.54%, 0.057% and 2.78%.
Take `CC1(C(=O)NC2CCCC2)Cn2c(nc3ccccc32)C(=O)N1Cc1cccnc1` (stereo not given): the activity change, negative = inhibition amounted to 10.7% in experiment [1]; 1.01% in experiment [2]; 9.93% in experiment [3]; 13.8% in experiment [4]; 5.22% in experiment [5].
Taken in the same sequence, the figures for `O=C1Cc2c(-c3cc4ccccc4o3)n[nH]c2CN1Cc1ccccc1` were -24.4%, -16.9%, -9.15%, -20.5% and -15%.
The corresponding values for `CSc1cccc(N2C(=O)CSc3c(c4ccccc4n3C)C2C(=O)NCCCOC(C)C)c1` (stereo not given) are 1.98%, 0%, 8.72%, -11.2% and 0.024%.
The corresponding values for `O=C(CCCc1ccccc1)Nc1ccc(OC2CCNCC2)nc1` are -40.9%, -17.8%, -21.2%, -2.27% and -36.2%.
For `Cn1c(=O)oc2ccc(C(=O)N[C@H](C3CCNCC3)C3CC(O)C3)cc21` (stereo not given in full), the activity change, negative = inhibition in experiment [2] was -2.65%; in experiment [4], -8.52%; in experiment [5] it was 4.9%.
